Laboratory results as given in PubChem BioAssay AID485294 (National Center for Advancing Translational Sciences (NCATS), 2010).
Among all 370,000 compounds or so, about 150 (0.041%) were called active. This list was built around the results that the source calls inconclusive (neither active nor inactive); the mix of calls is not that of the screen. Calls follow the shape of the dose curve; as a rule, active = well fitted inhibition curve with a large enough effect; inconclusive = small, poorly fitted or top-dose-only effect; inactive = flat fitted curve, though single readings scatter. Potencies of inconclusive entries are left out as doubtful fits.
Also: nearly all actives have a fitted effect of over 25% in size.
Potency is read from the fitted curve at half-maximal effect; tags tell the direction and shape of the fitted curve.

What follows are compounds tested against Beta-lactamase (Escherichia coli (strain K12)) (UniProt P00811) (assay: qHTS Inhibitors of AmpC Beta-Lactamase (assay with detergent)). Conditions: AmpC hydrolysis of nitrocefin, absorbance 480 nm, 0.01% Triton; series mostly up to 114 µM.
UniProt P00811, sequence (P00811 whole entry, looked up): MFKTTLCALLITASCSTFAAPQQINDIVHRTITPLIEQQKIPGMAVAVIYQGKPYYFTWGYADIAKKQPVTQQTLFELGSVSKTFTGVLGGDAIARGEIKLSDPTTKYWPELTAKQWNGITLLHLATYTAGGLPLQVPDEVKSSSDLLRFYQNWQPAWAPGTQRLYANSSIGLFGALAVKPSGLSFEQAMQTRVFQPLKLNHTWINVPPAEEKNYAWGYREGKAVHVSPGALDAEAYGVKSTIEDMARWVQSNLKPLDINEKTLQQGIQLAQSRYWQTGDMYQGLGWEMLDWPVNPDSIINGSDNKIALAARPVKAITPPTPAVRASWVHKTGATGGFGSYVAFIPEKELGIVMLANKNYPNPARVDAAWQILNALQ
Summary of the method: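 20 mM phosphate pH 7.0 + 0.01% (detergent screen) or 0.0001% Triton X-100; 5.3 nM AmpC reagent; cpd preinc 15 min RT; nitrocefin (800 uM stock) to start; A480 q20 s × 4 min; Activity was normalised to no-enzyme and no-compound control wells.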
`Cc1cccc(Cn2c(SCC(=O)Nc3ccccc3)nc3c2c(=O)[nH]c(=O)n3C)c1` was tested, and the Potency was inconclusive [inhibitor, full curve, poor fit].
`C[C@]12CC[C@@H](O)C[C@H]1CC[C@@H]1[C@@H]2CC[C@]2(C)C(=O)CC[C@@H]12` was tested, and the Potency was inconclusive [inhibitor, full curve, poor fit].
For `O=C(NC1CCSc2ccccc21)c1cc(S(=O)(=O)N2CCOCC2)ccc1F` (stereo not drawn), the Potency was “inactive”.
For `Cn1c2c(c(=O)n(C)c1=O)CN(CC1CCCO1)CN2` (stereo not drawn), the Potency was inconclusive [inhibitor, full curve].
`N#C/C(=C\c1ccc(N2CCOCC2)c([N+](=O)[O-])c1)c1nc2ccccc2[nH]1` was tested, and the Potency was inconclusive [inhibitor, full curve, poor fit].
`O=C(NCCCn1ccnc1)c1ccccc1F` was tested, and the Potency was inconclusive [inhibitor, full curve, poor fit].
For `Cc1ccc(S(=O)(=O)Nc2ncnc3ccccc23)cc1`, the Potency was “inactive”.
With `Cc1cc(C)nc(SC2CCCCC2NS(=O)(=O)c2ccccc2)n1` (stereo not drawn) the Potency was inconclusive [inhibitor, partial curve, poor fit].
With `CC(C)C[C@H]1CN=C(N(C)C)N1CC1CCCCCC1` the Potency was “inactive”.
For `O=C(O)[C@@H]1C[C@H]1[C@@H](NP(=O)(c1ccccc1)c1ccccc1)c1ccccc1`, the Potency was inconclusive [inhibitor, full curve, poor fit].
`Cc1cnc(NC(=O)c2ccc3c(c2)C(=O)N(Cc2cccnc2)C3=O)s1` was tested, and the Potency was inconclusive [inhibitor, full curve].
In the case of `Cc1ccc(S(=O)(=O)N(C)c2ccc(C(=O)Nc3cccnc3)cc2)cc1`, the Potency is reported as inconclusive [inhibitor, full curve, poor fit].
In the case of `CC(C)(C)c1ccc(C(=O)N2CCCC2c2cccs2)cc1` (stereo not drawn), the Potency is reported as “inactive”.
With `Cc1ccc(O)c(CN2CCN(c3ccccc3)CC2)c1` the Potency was inconclusive [inhibitor, full curve].
With `Cc1ccc(CNC(=O)c2cc(NS(=O)(=O)c3ccc(C)cc3)ccn2)cc1` the Potency was “inactive”.
With `COc1cc(C(=O)NCCC(=O)NC2CCCCCCC2)cc(OC)c1OC` the Potency was inconclusive [inhibitor, full curve, poor fit].
For `O=c1cc(Nc2cccc(Br)c2)[nH]c(=O)[nH]1`, the Potency was “inactive”.
For `CCOc1ccccc1CNC(=O)CCCn1c(=O)c2cccn2c2ccc(F)cc21`, the Potency was “inactive”.
`Cn1ncc(Br)c1C(=O)OCC(=O)Nc1nc(-c2ccccc2)cs1` was tested, and the Potency was inconclusive [inhibitor, partial curve].
In the case of `O=C(CN1C(=O)c2ccccc2S1(=O)=O)NC1CC2CCC1C2` (stereo not drawn), the Potency is reported as inconclusive [inhibitor, full curve, poor fit].
For `CCn1c(SCc2ccc(C(=O)O)cc2)nnc1-c1ccc(Cl)cc1`, the Potency was inconclusive [inhibitor, full curve, poor fit].
`Cc1cccc(N2CCN(Cc3oc(CO)cc(=O)c3O)CC2)c1C` was tested, and the Potency was inconclusive [inhibitor, partial curve, poor fit].
In the case of `COc1ccccc1COC(=O)c1ccc(S(=O)(=O)N2CCOCC2)cc1`, the Potency is reported as inconclusive [inhibitor, single point].
In the case of `COc1cc(C2NC(=S)NC(O)(C(F)(F)F)C2C(=O)c2cccs2)cc(OC)c1O` (stereo not drawn), the Potency is reported as “inactive”.
In the case of `Cc1c(OC(C)C(=O)NCCN2CCOCC2)ccc2c3c(c(=O)oc12)CCCC3` (stereo not drawn), the Potency is reported as inconclusive [inhibitor, full curve, poor fit].
For `COc1ccccc1OCC(=O)N/N=C/C=C/c1ccc([N+](=O)[O-])o1`, the Potency was “inactive”.
In the case of `FC(F)Sc1ccc(NC(=S)NC2CCCCC2)cc1`, the Potency is reported as inconclusive [inhibitor, full curve].
With `CN(C)S(=O)(=O)c1cccc(NC(=O)COc2ccccc2C(=O)NCc2ccccc2)c1` the Potency was “inactive”.
For `CCCN1CCN(C(=O)Cn2c(=O)oc3cc(S(=O)(=O)NCc4ccccc4)ccc32)CC1`, the Potency was inconclusive [inhibitor, full curve].
`CCNC(=O)CC1C(=O)N(c2ccc(F)cc2)C(=O)N1Cc1cccs1` (stereo not drawn) was tested, and the Potency was inconclusive [inhibitor, full curve].
In the case of `O=C(Nc1ccccc1)Nc1cc([N+](=O)[O-])ccc1F`, the Potency is reported as inconclusive [inhibitor, partial curve, poor fit].
`OC(COc1ccc2c(c1)CCC2)CN1CCN(c2cccc(Cl)c2)CC1` (stereo not drawn) was tested, and the Potency was inconclusive [inhibitor, partial curve].
In the case of `CCOc1ccc(/C=C/C(=O)c2c(O)cc(C)oc2=O)cc1`, the Potency is reported as “inactive”.
For `C/C(=N\NC(=S)NC1CCCCC1)c1c(F)cccc1F`, the Potency was “inactive”.
For `COc1cc(NC(=O)c2noc3c2CC(C(C)(C)C)CC3)cc(OC)c1OC` (stereo not drawn), the Potency was “inactive”.
For `CC1CCCCN1C(=O)c1cnn2c(C(F)(F)F)cc(-c3ccco3)nc12` (stereo not drawn), the Potency was inconclusive [inhibitor, partial curve].
For `C=CCOc1nc(-c2ccncc2)nc2ccccc12`, the Potency was inconclusive [inhibitor, full curve, poor fit].
In the case of `CCn1c(SCC(=O)NCc2ccc(C)cc2)nnc1-c1ccncc1`, the Potency is reported as inconclusive [inhibitor, full curve].
For `COc1ccc(NC(=O)CCC(=O)OCC(=O)c2ccc(Oc3ccc([N+](=O)[O-])cc3)cc2)cc1`, the Potency was inconclusive [inhibitor, partial curve].
For `COc1ccc(/C(C)=N/Nc2cc(C(F)(F)F)ccc2Cl)c(OC)c1`, the Potency was inconclusive [inhibitor, full curve, poor fit].
With `O=C(Nc1ccc2c(c1)OCO2)Nc1ccc(F)cc1F` the Potency was “inactive”.
`Cc1ccccc1NC(=O)CCN1CCN(C)CC1` was tested, and the Potency was inconclusive [inhibitor, partial curve, poor fit].
With `O=C1CCN(CCCc2ccccc2)CCN1[C@H](CO)c1ccccc1` the Potency was inconclusive [inhibitor, partial curve, poor fit].
